# Data published in article PMC4336329 (PLoS ONE, 2015).
# In all, about 310,000 compounds went through this assay and about 2,200 (0.71%) showed an effect of 50% or more. Effects have a minus sign here. This is one part of the list.
# Biological target: human ether-à-go-go-related gene (hERG) potassium channel (human, UniProt Q12809)
# Test: primary screen, population patch clamp on CHO cells stably expressing hERG
# Chain of human ether-à-go-go-related gene (hERG) potassium channel (Q12809 whole entry, looked up): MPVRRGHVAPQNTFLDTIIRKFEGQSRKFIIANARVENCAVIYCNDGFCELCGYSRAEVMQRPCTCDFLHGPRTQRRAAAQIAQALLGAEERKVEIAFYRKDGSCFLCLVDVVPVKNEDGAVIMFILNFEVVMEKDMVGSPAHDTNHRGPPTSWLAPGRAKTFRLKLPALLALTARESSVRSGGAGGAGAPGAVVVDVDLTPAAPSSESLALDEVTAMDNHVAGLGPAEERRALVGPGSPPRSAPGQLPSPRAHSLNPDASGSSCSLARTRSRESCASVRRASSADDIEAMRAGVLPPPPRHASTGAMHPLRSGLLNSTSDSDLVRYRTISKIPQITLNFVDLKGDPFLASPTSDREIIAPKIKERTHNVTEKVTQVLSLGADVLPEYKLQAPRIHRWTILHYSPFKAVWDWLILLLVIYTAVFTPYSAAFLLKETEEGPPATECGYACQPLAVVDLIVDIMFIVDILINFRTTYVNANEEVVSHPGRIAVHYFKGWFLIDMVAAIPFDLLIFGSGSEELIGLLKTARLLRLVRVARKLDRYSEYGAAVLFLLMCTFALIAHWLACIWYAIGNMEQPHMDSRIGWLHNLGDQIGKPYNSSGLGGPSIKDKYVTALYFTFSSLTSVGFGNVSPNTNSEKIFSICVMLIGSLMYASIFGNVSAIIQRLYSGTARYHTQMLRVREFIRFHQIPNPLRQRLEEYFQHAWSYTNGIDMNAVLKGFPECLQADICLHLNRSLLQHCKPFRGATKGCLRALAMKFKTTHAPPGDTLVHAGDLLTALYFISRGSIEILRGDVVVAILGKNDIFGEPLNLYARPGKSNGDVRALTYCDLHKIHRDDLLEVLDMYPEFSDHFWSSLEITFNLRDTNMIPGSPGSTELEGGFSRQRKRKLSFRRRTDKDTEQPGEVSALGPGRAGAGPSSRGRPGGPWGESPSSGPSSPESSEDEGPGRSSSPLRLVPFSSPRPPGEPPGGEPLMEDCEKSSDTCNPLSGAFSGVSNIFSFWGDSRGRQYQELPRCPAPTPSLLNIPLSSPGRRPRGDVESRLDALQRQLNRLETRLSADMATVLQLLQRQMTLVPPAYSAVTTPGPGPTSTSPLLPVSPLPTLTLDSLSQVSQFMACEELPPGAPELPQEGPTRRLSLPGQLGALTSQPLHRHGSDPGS
row,Structure (SMILES),"hERG current change (%, negative = inhibition) at 1uM [%]"
1,COC(=O)C1=C(c2ccc(F)cc2F)C[C@@H]2CC[C@H]1N2C(=O)N1CCCC1,12
2,N#C/C(=C\c1ccc(O)c(O)c1)C(=O)N1CCCC1,14.9
3,O=C(CCC1CCCC1)NNC(=O)c1cc2ccccc2cc1O,5.02
4,NNC(=O)c1n[nH]c2c1CC(C1CCCCC1)CC2 (stereo not shown),15.4
5,CCCOc1ccc(Cl)cc1Nc1nc(NCCO)nc(N2CCCC2)n1,19.4
6,CC1CCCCC1NC(=O)C1CCC(CNS(=O)(=O)c2ccccc2)CC1 (stereo not shown),15.7
7,CCOC(=O)c1ccc(S(=O)(=O)N2CCN(c3ccccn3)CC2)cc1,11.1
8,Cc1cccc(NC(=S)N2CCCC2)c1,16.9
9,Clc1nc(-c2n[nH]nc2Cl)n[nH]1,9.59
10,NS(=O)(=O)OCc1ccc(C(F)(F)F)cc1,5.62
11,O=C(O)C(Cc1c[nH]c2ccccc12)N1Cc2ccccc2C1=O (stereo not shown),8.38
12,S=C(NCc1ccco1)Nc1ccccc1,10.3
13,Cc1cccc(N2CCN(C(=O)CCCn3c(=S)[nH]c4cc5c(cc4c3=O)OCO5)CC2)c1C,11.7
14,COc1ccc(OC)c(NC(=O)CNC(=O)Cn2cnc3sc(C)cc3c2=O)c1,9.84
15,O=c1[nH]c(=O)n(Cc2ccco2)c(O)c1C=NC1CC1,8.68
16,O=C(COc1c(Cl)cccc1Cl)Nc1ccccc1N1CCCC1,6.21
17,O=C(COC(=O)c1c(F)cccc1F)Nc1ccccc1OC(F)F,9.57
18,O=C(Nc1ccccc1N1CCCCC1)c1ncoc1-c1ccc(F)cc1,13.1
19,Cc1ccc(S(=O)(=O)N(C)C)cc1NC(=O)/C=C/c1cccs1,5.45
20,COc1cccc(-c2nnc(NC(=O)c3ccc4ncsc4c3)o2)c1,0.153
21,CC(=O)c1cnc(SCCN2C(=O)c3ccccc3C2=O)nc1C,13.8
22,Cc1nnc(NC(=O)c2ccc(Br)o2)s1,15.2
23,CC(C)N(Cc1ccccc1)C(=O)Cn1c(=O)cnc2ccccc21,0.322

row,Structure (SMILES),"hERG current change (%, negative = inhibition) at 1uM [%]"
1,COc1ccccc1CNC(=O)c1nn(C)c2c1CS(=O)(=O)c1ccccc1-2,12
2,Cc1cc(=O)n2[nH]c(N)c(N=Nc3ccccc3)c2n1,1.55
3,O=C(c1cc(-c2ccccc2Cl)nc2ccccc12)N1CCOCC1,15.3
4,Cl.O=C(CN1CCCCC1)c1ccc2c(c1)OCO2,3.87
5,COc1cc2nc3occc3c(OC)c2cc1OC,-3.72
6,COc1ccc2[nH]c(C(=O)Nc3ccc4c(c3)OCO4)cc2c1,12.9
7,COc1ccc(/C=C2\SC(=S)N(CCC(=O)NCCCn3ccnc3)C2=O)cc1,1.22
8,CN1C(=O)c2cccc3c(N)ccc(c23)C1=O,8.82
9,CCCOc1ccccc1N/C(=N/c1nc(C)cc(C)n1)NC(=O)Nc1ccc(Cl)cc1,8.59
10,CCN(CC)c1nc(C)nc2c1sc(=S)n2C,8.96
11,COc1ccc(N/C=C\C(=O)c2ccc3ccccc3c2)cc1,13.8
12,COC(=O)N/N=C/c1ccc(OS(=O)(=O)c2ccc(C)cc2)c(OC)c1,5.3
13,CCC1CCCCN1Cc1ccc(N)cc1 (stereo not shown),-0.974
14,O=C(CCN1C(=O)/C(=C/c2cccs2)SC1=S)Nc1cccc(C(=O)O)c1,18.6
15,Cc1nc(SCC(=O)NCC2CCCO2)c2c3c(sc2n1)CCC3 (stereo not shown),-4.41
16,O=C(CC1CCCC1)N1CCCC(Nc2ccc(F)cc2)C1 (stereo not shown),10.4
17,COC(=O)CCCC[C@H]1SC[C@H]2NC(=O)N[C@]21O,7.23
18,COc1cccc(-n2nnc3c(=O)n(Cc4ccc(Br)cc4)cnc32)c1,1.13
19,CC(Sc1nnnn1C1CC1)C(=O)N1CC(=O)Nc2ccccc21 (stereo not shown),16.6
20,CC(C)NS(=O)(=O)c1ccc(OCC(=O)NC(C)c2ccccc2)cc1 (stereo not shown),-4.86
21,O=C(CCC(=O)N1CCN(C2CCCC2)CC1)Nc1nnc(C(F)(F)F)s1,13
22,O=C(Nc1ccccc1)N1CCN(c2nc(-c3ccccc3)ns2)CC1,2.1
23,CCOc1c2ccc(C(=O)NCC34CC5CC(CC(C5)C3)C4)cc2nn1CC,5.36
